Reference: the supplement of paper PMC3334620
The full ranking holds about 33,000 sequences; the median of “E-score (-0.5 to 0.5)” is about -0.035, and the highest 2% start at about 0.35. This is one part of the list.

Target: T1, Pdr3 (UniProt P33200)
T1 sequence: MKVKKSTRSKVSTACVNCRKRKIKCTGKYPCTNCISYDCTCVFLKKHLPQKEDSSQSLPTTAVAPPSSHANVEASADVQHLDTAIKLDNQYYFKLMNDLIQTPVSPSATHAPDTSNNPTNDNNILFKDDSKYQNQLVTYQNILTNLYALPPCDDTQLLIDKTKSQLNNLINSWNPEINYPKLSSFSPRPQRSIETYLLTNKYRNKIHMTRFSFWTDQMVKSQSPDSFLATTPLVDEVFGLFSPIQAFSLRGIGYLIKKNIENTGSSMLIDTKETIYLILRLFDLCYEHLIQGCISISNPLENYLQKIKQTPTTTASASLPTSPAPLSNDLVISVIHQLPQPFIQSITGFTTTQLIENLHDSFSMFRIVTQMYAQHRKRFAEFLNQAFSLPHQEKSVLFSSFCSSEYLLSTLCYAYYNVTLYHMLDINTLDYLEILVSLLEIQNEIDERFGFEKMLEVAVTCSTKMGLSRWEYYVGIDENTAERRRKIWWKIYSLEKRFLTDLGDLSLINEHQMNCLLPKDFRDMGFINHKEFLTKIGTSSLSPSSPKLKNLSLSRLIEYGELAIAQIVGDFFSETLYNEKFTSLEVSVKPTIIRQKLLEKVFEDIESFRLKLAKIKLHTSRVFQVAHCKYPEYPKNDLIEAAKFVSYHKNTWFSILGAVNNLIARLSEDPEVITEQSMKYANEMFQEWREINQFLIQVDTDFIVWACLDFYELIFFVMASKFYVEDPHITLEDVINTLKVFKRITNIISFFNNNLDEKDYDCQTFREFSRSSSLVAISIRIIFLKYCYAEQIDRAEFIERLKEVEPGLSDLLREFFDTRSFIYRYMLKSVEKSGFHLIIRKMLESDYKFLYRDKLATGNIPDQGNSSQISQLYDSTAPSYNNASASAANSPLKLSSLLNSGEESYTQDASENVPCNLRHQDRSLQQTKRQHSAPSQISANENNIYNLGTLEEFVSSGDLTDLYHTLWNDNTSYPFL
Assay: PBM E-score (8-mer binding enrichment) (E-score (-0.5 to 0.5)); higher = stronger / more preferred TF binding; most listed sequences are background and not binding sites
Conditions: protein concentration: 200 nM; construct: GST-full length
Outline: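 Each ungapped eight-base word and its reverse complement, pooled, received an E-score from the Universal PBM Analysis Suite. Underlying scans, normalised with masliner, recorded fluorescent anti-GST bound to GST-tagged yeast transcription factors. These were applied at about 100-200 nM to universal all-10-mer Agilent arrays double-stranded by primer extension.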

Row | Sequence | PBM E-score
1 | CTCCGAAG | 0.311
2 | AATTTTTG | -0.28
3 | AATCGTGG | -0.0183
4 | CCCTCACG | -0.134
5 | GCATGCCC | 0.166
6 | GGGTTGAC | 0.0502
7 | AAAAGGAG | -0.133
8 | AGACGACG | 0.0264
9 | ATCCAGTA | -0.0836
10 | CCCTTGTA | -0.196
11 | TAGGCACA | -0.224
12 | GTGATTTA | 0.163
13 | TCCGGGAA | 0.386
14 | CAGAGATC | -0.0206
15 | AGTACTAA | -0.085
16 | AAGTTCCT | 0.0364
17 | AAGACACG | 0.0223
18 | AGTCCGTC | 0.259
19 | AGATTCCA | 0.0602
20 | ATGTTCAA | 0.106
21 | CGTGGTTA | -0.275
22 | CCGCCTTA | -0.0967
23 | ACAATGCA | 0.0617
24 | CAGGTTGG | -0.0735
25 | CCGCACGG | 0.279

Row | Sequence | PBM E-score
26 | CGAAAGCC | -0.105
27 | TATATGAA | 0.00892
28 | GAGGTATA | -0.0622
29 | ACGATGCA | 0.0111
30 | ATAGTAGA | -0.0178
31 | ACTGTTGA | -0.141
32 | AGTATCTG | -0.157
33 | CATCCAAG | 0.00399
34 | GCTAGTTA | -0.0442
35 | CCTTCAAG | -0.0814
36 | AGCACGAT | -0.0278
37 | AAGGGTAG | -0.15
38 | AGCGCGGA | 0.331
39 | CTTTGCCC | -0.17
40 | ACGCACTA | -0.0824
41 | ATGTATGG | -0.269
42 | CCCCTGAA | 0.0189
43 | AGACCCCC | -0.271
44 | ATCTATTA | 0.147
45 | ATTCTATG | -0.0254
46 | AGGATATG | -0.0369
47 | ATACCGAA | 0.101
48 | TGAACAAA | 0.146
49 | CAGTCTGG | -0.27
50 | ATACGGGC | 0.00646

Row | Sequence | PBM E-score
51 | GCAGAATA | -0.0373
52 | CAACTCAC | -0.0155
53 | ACGAGCCC | -0.0654
54 | AAACGTAT | 0.0149
55 | ACTGGCAA | -0.123
56 | ACCGTAAA | -0.0635
57 | GCGCAAAA | 0.0314
58 | AAATGTGG | 0.0508
59 | AGGCGGCC | 0.0632
60 | AGGTCGAC | 0.0695
61 | ACTTGCAC | -0.0441
62 | AGACCACC | -0.229
63 | AAGTTCAT | 0.115
64 | CACGTTGC | -0.175
65 | AGGGAGTA | -0.205
66 | GGACCCCC | -0.0544
67 | GAGCGCGC | 0.283
68 | ACACTCCT | -0.0522
69 | AATGATAA | 0.106
70 | AATTCCAC | 0.193
71 | TATACGAA | 0.0271
72 | GGCCAACC | 0.0991
73 | GGCCAGAC | 0.075
74 | GGATTAAA | 0.119
75 | GCGGTTGA | 0.169

Row | Sequence | PBM E-score
76 | ATTTAGTA | 0.173
77 | TCTGGCCA | -0.0481
78 | ATGGGGCG | 0.0867
79 | ATCGACGC | 0.0707
80 | GCGATACC | -0.00065
81 | AGAACTGA | -0.0933
82 | CCTTAGCA | -0.0732
83 | CGAGCTCG | 0.224
84 | GGCGTAGA | -0.0518
85 | CTAACACC | -0.189
86 | AATTCGCA | 0.255
87 | GGGCTCAA | -0.118
88 | CAGAGGTA | 0.00282
89 | GGATCCAC | 0.203
90 | GATGCCGC | 0.0903
91 | GACACTAC | -0.00203
92 | CTAGAATA | -0.0684
93 | ATACTCGC | 0.162
94 | GATCACGA | -0.11
95 | CGCGTAGC | -0.044
96 | CCCTACGG | -0.00133
97 | CAGACATA | 0.0453
98 | CCTTCAGC | -0.301
99 | GTCTTCAA | -0.189
100 | ACTAGCGA | 0.00219

Row | Sequence | PBM E-score
101 | AAACGGCA | 0.079
102 | ATACATCA | -0.00985
103 | TACTCCAA | -0.105
104 | CTTCAGTC | -0.179
105 | TCTTCGCA | 0.0511
106 | AACGAAGG | -0.259
107 | ACGTCAAC | -0.0164
108 | GATCGACA | -0.157
109 | CCATTTGA | -0.112
110 | CGTGCTAA | -0.171
111 | AATCTTGT | 0.126
112 | GTCGCAGA | 0.036
113 | ACCCTCCC | 0.299
114 | AGTCTAGA | -0.29
115 | TCCAAGGA | -0.00825
116 | GATCAGGC | -0.00771
117 | ATTGAGTG | 0.0622
118 | AAGATGGA | -0.00023
119 | AGCGTTGG | -0.244
120 | GCTGCCCA | -0.0281
121 | GCTAATCA | -0.062
122 | TATTGCCA | -0.0334
123 | GCGCTGGA | 0.141
124 | ATTCGCTC | 0.0456
125 | CGAAGTCA | -0.15

Row | Sequence | PBM E-score
126 | GAGCACTA | -0.126
127 | ATCGCAAA | 0.0175
128 | TACAATCA | -0.193
129 | AAATGTAG | -0.12
130 | ATTCGTAC | 0.0686
131 | AAGAGATA | -0.206
132 | ACAGCTCC | 0.0544
133 | GATGTTCC | 0.336
134 | CATCTCGG | 0.257
135 | ATATGACG | 0.0426
136 | ACCACAGA | -0.126
137 | AAATCGTC | -0.0133
138 | AGAGCCAG | -0.271
139 | CACCATTA | 0.103
140 | ACTGCTTA | -0.252
141 | AGCCGCAT | 0.0366
142 | CTCTAGAC | -0.245
143 | ACATACTA | 0.0877
144 | ATGAAAAG | -0.123
145 | AACCACCA | -0.0596
146 | AACGCTTC | 0.0186
147 | CTAAAGAA | -0.203
148 | ACCGCGGG | 0.472
149 | AAAGTAGG | -0.0329
150 | AGAGGCTG | -0.365

Row | Sequence | PBM E-score
151 | GTTGACTA | -0.205
152 | ACATGTAA | -0.0728
153 | GCCTTGGA | -0.0995
154 | AACTCTCT | -0.0885
155 | ACTGCCCG | 0.179
156 | CTCAAACA | -0.0298
157 | TAGGCCCA | -0.256
158 | ATATCTGC | -0.044
159 | ACGATAAA | -0.307
160 | ACGTCCCT | -0.213
161 | ATTGCACC | -0.0754
162 | CCTTGATA | -0.156
163 | ATATTAAT | 0.285
164 | ATCTAGCA | -0.152
165 | GGCGCTTA | -0.0877
166 | ACGACAAC | 0.19
167 | ATGTGAAC | -0.153
168 | AGCGCTTA | 0.0658
169 | TAAATTAA | 0.0873
170 | AGCAGTAC | -0.139
171 | ACCACGTC | -0.174
172 | CTCTCGTA | -0.00771
